{"source": "PubChem BioAssay AID1460", "about": "(National Center for Advancing Translational Sciences (NCATS), 2008)", "note": "About 5,800 (2.1%) of roughly 270,000 compounds were called active. Inconclusive results, whose numbers are uncertain, are shown with a selection of clear calls. The call rests on the fitted dose curve; in most records, active means well fitted inhibition curve with a large enough effect; inconclusive means small, poorly fitted or top-dose-only effect; inactive means flat fitted curve, though single readings scatter. A potency beside an inconclusive call is a rough fit, not a confirmed value. On the % scale 0 is the no-effect control and ±100 the full control effect; potency means the concentration at half of the fitted maximal effect; tags describe the fitted curve by direction and shape.", "data": [{"target": "Microtubule-associated protein tau (Homo sapiens) (UniProt P10636)", "sequence (P10636 whole entry, looked up)": "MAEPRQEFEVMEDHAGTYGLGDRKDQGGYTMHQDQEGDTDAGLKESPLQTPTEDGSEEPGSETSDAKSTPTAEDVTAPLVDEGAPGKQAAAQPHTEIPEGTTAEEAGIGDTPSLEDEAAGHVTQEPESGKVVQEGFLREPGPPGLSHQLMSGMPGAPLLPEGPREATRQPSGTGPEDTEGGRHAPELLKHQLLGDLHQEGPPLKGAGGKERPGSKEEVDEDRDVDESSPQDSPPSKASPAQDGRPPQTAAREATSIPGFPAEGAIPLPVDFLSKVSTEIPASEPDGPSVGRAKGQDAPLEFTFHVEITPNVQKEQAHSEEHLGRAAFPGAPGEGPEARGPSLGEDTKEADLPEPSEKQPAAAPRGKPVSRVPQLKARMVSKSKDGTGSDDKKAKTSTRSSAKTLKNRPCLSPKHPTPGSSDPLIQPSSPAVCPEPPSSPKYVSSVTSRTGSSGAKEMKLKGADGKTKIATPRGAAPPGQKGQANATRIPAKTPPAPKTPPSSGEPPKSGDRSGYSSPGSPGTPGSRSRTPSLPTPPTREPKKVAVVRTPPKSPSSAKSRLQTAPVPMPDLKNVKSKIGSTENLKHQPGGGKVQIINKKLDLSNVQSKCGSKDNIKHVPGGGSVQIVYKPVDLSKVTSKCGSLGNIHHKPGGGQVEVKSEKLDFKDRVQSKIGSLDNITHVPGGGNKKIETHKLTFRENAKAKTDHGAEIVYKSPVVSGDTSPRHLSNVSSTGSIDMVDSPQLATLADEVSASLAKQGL", "assay": "qHTS for Inhibitors of Tau Fibril Formation, Thioflavin T Binding; further: nearly all actives have a fitted effect of over 55% in size", "details": "recombinant tau K18 P301L, heparin-induced fibrillization, ThT fluorescence; series mostly up to 57.4 µM", "summary_of_the_method": "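Using a mix of unlabeled (15 uM) and Alexa 594-labeled (0.24 uM) tau K18 P301L, heparin-triggered fibrillization over 6 hr at 37 C was scored by ThT fluorescence.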", "values": [{"smiles": "COc1ccc(N2CCC(CNC(=S)Nc3cccc(OC)c3)C2)cc1", "note": "(stereo not drawn)", "Potency": "inconclusive: 11.2 µM [inhibitor, partial curve]"}, {"smiles": "Cc1ccc(-n2ncc(C(=O)NCc3ccccn3)c2C2CCN(C(=O)OC(C)(C)C)CC2)cc1C", "Potency": "inactive"}, {"smiles": "COc1cccc(CNC(=O)C2CCN(Cc3cc4ccccc4n3Cc3ccccc3)CC2)c1OC", "Potency": "inactive"}, {"smiles": "C=CCN1C=CC(=O)CC1", "Potency": "inactive"}, {"smiles": "CCOC(=O)c1cc(-c2ccc(N3CCOCC3)cc2)nn1-c1ccc(F)cc1F", "Potency": "inconclusive: 7.08 µM [inhibitor, partial curve]"}, {"smiles": "COCCn1c(=S)[nH]c2cc(OC)c(OC)cc2c1=O", "Potency": "inactive"}, {"smiles": "O=C(COc1ccc(Cl)cc1)Nc1ccc2nc(SCC(=O)N3CCOCC3)sc2c1", "Potency": "inactive"}, {"smiles": "Cc1ccc(Nc2nc(CSc3nnc(-c4ccccc4C)n3C)cs2)cc1", "Potency": "inconclusive: 14.1 µM [inhibitor, partial curve]"}, {"smiles": "COc1ccc(C(=O)Nc2ccc(S(=O)(=O)Nc3onc(C)c3C)cc2)c(OC)c1", "Potency": "inactive"}, {"smiles": "CCOc1ccc(S(=O)(=O)NCc2ccc3c(c2)CCN3C(=O)c2ccc(C)cc2)cc1", "Potency": "inactive"}, {"smiles": "CCn1ccc2cc(S(=O)(=O)N3CCC(C(=O)NCC(C)c4ccccc4)CC3)ccc21", "note": "(stereo not drawn)", "Potency": "inactive"}, {"smiles": "Cc1ccc(NCc2cc3cc4c(cc3n(CC(=O)Nc3ccc(F)cc3F)c2=O)OCCO4)cc1", "Potency": "inconclusive: 28.2 µM [inhibitor, single point]"}, {"smiles": "O=C(CNS(=O)(=O)c1ccccc1)OCc1cccc([N+](=O)[O-])c1", "Potency": "inactive"}, {"smiles": "Cc1nnc2c3ccccc3nc(Nc3ccccc3C(=O)O)n12", "Potency": "inconclusive: 15.8 µM [inhibitor, partial curve, poor fit]"}, {"smiles": "CC(/C=N/NC(=O)NC1CCCCC1)=C\\c1ccccc1", "Potency": "inconclusive: 39.8 µM [inhibitor, single point]"}, {"smiles": "CCOc1cc(C=C2C(=O)c3ccccc3C2=O)ccc1OCC(=O)Nc1ccc(C)cc1", "Potency": "inactive"}, {"smiles": "CC(C)(C)c1ccc(S(=O)(=O)c2cnc(SCC(=O)Nc3ccc4c(c3)OCCO4)[nH]c2=O)cc1", "Potency": "inconclusive: 28.2 µM [inhibitor, single point]"}, {"smiles": "Cn1c(NN)nc2sc3c(c2c1=O)CCC3", "Potency": "inconclusive: 14.1 µM [inhibitor, partial curve]"}, {"smiles": "O=C(Nc1cccc([N+](=O)[O-])c1)Nc1cccs1", "Potency": "inconclusive: 28.2 µM [inhibitor, partial curve]"}, {"smiles": "COc1ccc(-c2nc(CSCC(=O)NC3CCCc4ccccc43)c(C)o2)cc1OC", "note": "(stereo not drawn)", "Potency": "inconclusive: 15.8 µM [inhibitor, partial curve]"}, {"smiles": "CCc1nc2ccccc2n1CCCCOc1cccc(C)c1", "Potency": "inconclusive: 35.5 µM [inhibitor, single point]"}, {"smiles": "CCCOc1ccc(NC(=O)CC2C(=O)N(c3ccc(OC)cc3)C(=O)N2CCc2ccncc2)cc1", "note": "(stereo not drawn)", "Potency": "inactive"}, {"smiles": "Cc1nnsc1C(=O)Oc1ccc(C#N)cc1", "Potency": "inconclusive: 31.6 µM [inhibitor, partial curve]"}, {"smiles": "Cc1c(C(=O)Nc2nc3ccccc3[nH]2)oc2ccc(Br)cc12", "Potency": "inconclusive: 0.158 µM [inhibitor, partial curve, poor fit]"}, {"smiles": "COC(=O)c1cc(NC(=O)CN(c2ccccc2OC)S(=O)(=O)c2ccccc2)ccc1Cl", "Potency": "inconclusive: 28.2 µM [inhibitor, partial curve]"}, {"smiles": "O=C(CCCOc1ccccc1)NCCc1ccccc1", "Potency": "inactive"}, {"smiles": "CCSc1nc2c(sc3nc(C)cc(C)c32)c(=O)[nH]1", "Potency": "inconclusive: 2.82 µM [inhibitor, full curve]"}, {"smiles": "CCN(CC)c1ccc(/C=N/NC(=O)c2ccccn2)cc1", "Potency": "active: 10 µM"}, {"smiles": "COc1ccc(C(=O)CSc2nc(C)cc(=O)[nH]2)cc1", "Potency": "inactive"}, {"smiles": "CCN(CC)CCCN1C=C2C(=O)C(C)(OC(=O)c3cccs3)C(=O)C=C2C=C1CCCC(=O)OC", "note": "(stereo not drawn)", "activity, negative = inhibition": "inactive: 5.22% [at 11.5 µM]"}, {"smiles": "COc1ccc(-c2nnnn2-c2ccc(F)cc2F)cc1", "Potency": "inactive"}, {"smiles": "Cc1ccc(Sc2ccc(N3CCCC(C(=O)Nc4ccc(F)cc4)C3)nn2)cc1", "note": "(stereo not drawn)", "Potency": "inactive"}, {"smiles": "Cc1ccc(CN2CCN(/N=C/C(Br)=C\\c3ccccc3)CC2)cc1", "Potency": "inconclusive: 31.6 µM [inhibitor, partial curve, poor fit]"}, {"smiles": "O=C(CCCSc1nc(-c2ccco2)cc(C(F)(F)F)n1)NCC1CCCO1", "note": "(stereo not drawn)", "Potency": "inactive"}, {"smiles": "CCOc1ccc(NC(=O)c2ccc(C#CC(C)(C)O)cc2)cc1", "Potency": "inconclusive: 14.1 µM [inhibitor, partial curve]"}, {"smiles": "COc1ccc2nc(SCC(O)c3cccc(Br)c3)[nH]c2c1", "note": "(stereo not drawn)", "Potency": "inactive"}, {"smiles": "Clc1c(-c2nnc3n2CCCCC3)sc2ccccc12", "Potency": "inactive"}, {"smiles": "CC(Sc1nnnn1-c1ccccc1)C(=O)Nc1ccccc1-c1ccccc1", "note": "(stereo not drawn)", "Potency": "inactive"}, {"smiles": "COc1ccc(OC)c(/C(C)=N/Nc2ccc(C(=O)O)cc2)c1", "Potency": "inactive"}, {"smiles": "Cc1cc(C)n2nc(C(=O)Nc3ccc4c(c3)OCO4)cc2n1", "Potency": "inconclusive: 15.8 µM [inhibitor, partial curve]"}, {"smiles": "COc1ccc(C(=O)n2nc(-c3cccnc3)nc2NCc2ccccc2)cc1OC", "Potency": "inconclusive: 14.1 µM [inhibitor, partial curve]"}, {"smiles": "CC(C)COC(=O)C(C#N)c1nc2ccccc2nc1N1CCN(Cc2ccccc2)CC1", "note": "(stereo not drawn)", "Potency": "inactive"}, {"smiles": "CCOc1ccc(CNC(=O)CCCn2c(=O)c3cccn3c3ccccc32)cc1", "Potency": "inconclusive: 8.91 µM [inhibitor, partial curve]"}, {"smiles": "COc1cc(OC)cc(C(=O)NC(=S)Nc2ccc3c4c(cccc24)CC3)c1", "Potency": "inconclusive: 20 µM [inhibitor, partial curve, poor fit]"}, {"smiles": "COc1ccc(-c2nc(CN3CCC(C(=O)NCc4ccc(C)cc4)CC3)c(C)o2)cc1OC", "Potency": "inactive"}, {"smiles": "CCOC(=O)c1csc(COc2ccc(OC)cc2)n1", "Potency": "inconclusive: 7.94 µM [inhibitor, partial curve, poor fit]"}, {"smiles": "CCc1ccc(N2C(=O)CC(NNc3nc4ccccc4s3)C2=O)cc1", "note": "(stereo not drawn)", "Potency": "inconclusive: 6.31 µM [inhibitor, partial curve]"}, {"smiles": "O=C(N/N=C/c1ccccc1Cl)c1ccc(F)cc1", "Potency": "inconclusive: 12.6 µM [inhibitor, partial curve]"}, {"smiles": "COC(=O)CC1C(=O)NCCN1C(=S)Nc1cc(C)cc(C)c1", "note": "(stereo not drawn)", "Potency": "inactive"}, {"smiles": "Cc1cc(C)c(S(=O)(=O)NCCn2c(C)cc3ccccc32)c(C)c1", "Potency": "inconclusive: 28.2 µM [inhibitor, single point]"}, {"smiles": "COc1ccc(NC(=O)Cn2c(=O)n(CCCCCC(=O)NCc3ccc4c(c3)OCO4)c(=O)c3sccc32)cc1Cl", "Potency": "inconclusive: 28.2 µM [activator, single point]"}, {"smiles": "O=C(Nc1cccc(C(=O)OCc2cc(=O)n3c4c(sc3n2)CCCC4)c1)c1ccc(Cl)cc1", "Potency": "inconclusive: 14.1 µM [inhibitor, partial curve]"}, {"smiles": "CCOc1ccc(NC(=O)CCC(=O)NNC(=O)Nc2cccc(Cl)c2)cc1", "Potency": "inactive"}, {"smiles": "Cc1ccc(OC(=O)COc2ccccc2C)c(-n2nc3ccccc3n2)c1", "Potency": "inconclusive: 28.2 µM [inhibitor, single point]"}, {"smiles": "Clc1cccc(Nc2nnc(-c3ccccc3)c3ccccc23)c1", "Potency": "inactive"}, {"smiles": "O=C(Cn1cc(SCc2ccc(F)cc2)c2ccccc21)N1CCCCC1", "Potency": "inconclusive: 22.4 µM [inhibitor, single point]"}, {"smiles": "Cc1ccc(Cn2c(C)c3cnn(CC(=O)O)c(=O)c3c2C)cc1", "Potency": "inactive"}, {"smiles": "O=C(NCCc1ccccc1)c1ccc(-c2ccccc2C(F)(F)F)o1", "Potency": "inactive"}, {"smiles": "FC(F)(F)c1nc2cc3nc4ccccc4[nH]c3cc2n1", "Potency": "active: 5.01 µM"}, {"smiles": "Cc1cc(F)ccc1NC(=O)Cn1nc(N2CCN(c3ccccc3)CC2)ccc1=O", "Potency": "inconclusive: 12.6 µM [inhibitor, partial curve]"}, {"smiles": "Cc1ccc(-c2noc(-c3cccnc3NCc3ccco3)n2)cc1", "Potency": "inactive"}, {"smiles": "COc1ccc2c(CNC3CCCCCC3)c(C(=O)O)n(Cc3ccc(C)cc3)c2c1", "Potency": "inactive"}, {"smiles": "C=CC[n+]1c(-c2ccc(Cl)cc2Cl)csc1Nc1ccc(NC(C)=O)cc1", "Potency": "inconclusive: 39.8 µM [inhibitor, single point]"}, {"smiles": "O=C(NCc1cccnc1)/C(=C/c1ccc(-c2ccc(Cl)cc2)o1)S(=O)(=O)c1ccccc1", "Potency": "inconclusive: 12.6 µM [inhibitor, partial curve, poor fit]"}, {"smiles": "Cc1nnc(N/N=C/c2ccccc2O)n1N", "Potency": "inconclusive: 31.6 µM [inhibitor, partial curve]"}, {"smiles": "O=C1NC2=C(C(=O)c3ccccc32)C(c2ccccc2)N1", "note": "(stereo not drawn)", "Potency": "active: 22.4 µM"}, {"smiles": "COc1ccc(-c2cc(OC(=O)c3ccccc3Cl)c3c(C)oc(C)c3c(=O)c2)cc1OC", "Potency": "inconclusive: 14.1 µM [inhibitor, partial curve]"}, {"smiles": "CCOc1cccc(C(=O)Nc2ccc3oc(-c4ccncc4)nc3c2)c1", "Potency": "inconclusive: 0.447 µM [inhibitor, full curve]"}, {"smiles": "Cc1ccc(-c2nc(SCC(=O)NCCN3C(=O)CSC3=O)[nH]c2-c2ccc(C)cc2)cc1", "Potency": "inconclusive: 25.1 µM [inhibitor, partial curve]"}, {"smiles": "N#CC1(Cc2ccc(Cl)cc2)c2ccccc2C=CN1C(=O)c1ccccc1", "note": "(stereo not drawn)", "Potency": "inactive"}, {"smiles": "CCc1nnc(SCc2cccc(Cl)c2)c2cc3sccc3n12", "Potency": "inconclusive: 28.2 µM [inhibitor, single point]"}, {"smiles": "Nc1c(C(=O)C2CC2)sc2nc(-c3cccs3)cc(C(F)(F)F)c12", "Potency": "inconclusive: 4.47 µM [inhibitor, full curve]"}, {"smiles": "COc1ccccc1NC(=O)c1sc(-c2ccc(Cl)cc2)cc1N", "Potency": "inconclusive: 2.51 µM [inhibitor, full curve]"}]}]}
